Laboratory results taken from PubChem BioAssay AID1347073 (National Center for Advancing Translational Sciences (NCATS), 2019).
Out of some 45,000 compounds screened, about 200 (0.44%) were called active. Roughly 7% stayed inconclusive and do not appear here. Calls come from the whole dose curve; as a rule, active = well fitted activation curve with a large enough effect; inconclusive = small, poorly fitted or top-dose-only effect; inactive = no such curve, though single readings can be large or run the other way. The list shows a part of the results. Peptide text beside a SMILES is read from it. * marks the point of attachment. Boc = CC(C)(C)OC(=O)*

Test: qHTS of TDP-43 Inhibitors: NCGC Sytravon Library Screen; note: 0% is about no effect; nearly all actives have a fitted effect of over 55% in size
Settings: yeast TDP-43 toxicity rescue, BacTiter-Glo growth, 24 h; series mostly up to 46.1 µM; growth rescue (activation): at the top concentration
In short: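 TDP-43-expressing yeast, pregrown in raffinose, seeded at OD600 0.02 in galactose medium with compound for 24 hr at 30 deg C. Growth read by BacTiter-Glo luminescence, so rescue of toxicity appears as activation.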

| SMILES | growth rescue (activation) |
| --- | --- |
| CCCN(CCC)CCCNC(=O)c1cc2c(=O)[nH]c3ccccc3c2s1 | inactive: -6.15% |
| CNC(=O)NC(=O)CN1C(=O)NC2(CCOc3ccccc32)C1=O (stereo not drawn) | inactive: 1% |
| COc1cc(CN(C2CCCCC2)S(=O)(=O)c2ccc(S(=O)(=O)N(C)C3CCCCC3)cc2)cc(OC)c1OC | inactive: 11.5% |
| Cn1nc(C2CC2)cc1NC(=O)C1(C)CCN1C(=O)CCc1ccccc1 (stereo not drawn) | inactive: 5.76% |
| CC1CCc2cc(F)ccc2N1C(=O)c1ccncc1 (stereo not drawn) | inactive: 9.19% |
| Cc1cc(=O)n2[nH]c(CCC(=O)O)nc2n1 | inactive: 27.6% |
| CCn1c(SCC(=O)N/N=C\c2ccccc2OCC(=O)O)nnc1-c1ccc(Cl)cc1 | inactive: 11.1% |
| NS(=O)(=O)c1ccc(Cc2ncc(C(F)(F)F)cc2Cl)s1 | inactive: 13.1% |
| O=Cc1c(C(=O)O)n(CC(=O)O)c2ccccc12 | inactive: 17.9% |
| CSc1ccc(CN2CCN(C(=O)c3ccc([N+](=O)[O-])cc3)CC2)cc1 | inactive: -5.92% |
| CCCCN(C)CCC(=O)Nc1ccc2c(c1)CCC2 | inactive: -12.5% |
| C[C@]12C=CC(=O)C=C1CCC1C2CC[C@@]2(C)C1CCC21OCCO1 (stereo partly drawn) | inactive: 13% |
| CCc1cccc(C)c1Nc1c(-c2ccc(F)cc2)nc2sccn12 | inactive: 25.3% |
| CCCCN(CC)CCNC(=S)Nc1ccc2nc(N3CCN(C)CC3)cc(C)c2c1 | inactive: 2.58% |
| O=C(COc1ccc(F)cc1Br)NCC1(N2CCCCC2)CCCCC1 | inactive: 2.92% |
| COc1ccc(/C=N/n2c(SC)nnc2-c2ccccc2)c(OC)c1OC | inactive: 26.8% |
| CCc1nc2ccc(C(=O)N(CC)CCN(C)C)cn2c1N(C=O)CCC(C)C | inactive: 9.65% |
| Cc1cccc(N(CC(=O)NCc2ccco2)C(=O)CCC(=O)Nc2ccccn2)c1C | inactive: -8.45% |
| COc1ccc(C(=O)NN=C(Cc2ccccc2)Cc2ccccc2)cc1OC | inactive: 15.9% |
| CCCCCC(=O)NC(=S)NNC(=O)c1ccc([N+](=O)[O-])cc1 | inactive: 13.1% |
| Cc1ccc(-n2c(C)cc(=O)cc2C)c(C)c1 | inactive: 2.03% |
| COc1cc(NC(=S)NCCC(c2ccccc2)c2ccccc2)c(OC)cc1Cl | inactive: -1.23% |
| COc1ccc(Br)cc1CN(C)C(=O)C1CC(=O)N(C2CCCC2)C1 (stereo not drawn) | inactive: 17.7% |
| Cc1cc(Cl)ccc1NC(=O)CN1CCN(C(=O)c2ccco2)CC1 | inactive: 9.77% |
| CCOC(=O)c1sc(NC(=O)CSc2n[nH]c(C)n2)nc1C | inactive: 12.7% |
| O=C(COC(=O)c1cccnc1Cl)Nc1ccc(S(=O)(=O)N2CCOCC2)cc1 | inactive: -8.72% |
| O=C(CCOc1ccccc1)Nc1cccc([N+](=O)[O-])c1 | inactive: 0.839% |

| SMILES | growth rescue (activation) |
| --- | --- |
| CCC(C)C(NC(=O)OC(C)(C)C)C(=O)NC(C(=O)NC(C)C(N)=O)C(C)C (stereo not drawn) (Boc-Ile-Val-Ala-NH2; configuration not given here) | inactive: 16.5% |
| CC(OC(=O)c1ccco1)C(=O)NC1CCCC1 (stereo not drawn) | inactive: 12.9% |
| Cc1cc(C)c(S(=O)(=O)c2ccccc2C)c(OCCO)n1 | inactive: 11.4% |
| COc1ccc(C(C(=O)NC2CCCCC2)N(CC2CCCO2)C(=O)CCCC(=O)Nc2ccccn2)cc1 (stereo not drawn) | inactive: 2.86% |
| Cc1ccc(NC(=O)CN2C(=O)C(c3ccccc3)=NC23CCCCC3)cc1C | inactive: 20.1% |
| Cc1cc(C)cc(Cn2c3ccc(NC(=O)NCCc4cccs4)cc3c(=O)n2C)c1 | inactive: 10.6% |
| COc1cc([N+](=O)[O-])ccc1NC(=S)Nc1cc(C(=O)OC(C)C)cc(C(=O)OC(C)C)c1 | inactive: 9.22% |
| Cc1ccc(C(=O)NNC(=O)c2cccc(Br)c2)cc1 | inactive: -6.18% |
| CCn1nccc1NC(=O)c1csc([C@@H]2O[C@H](CO)[C@H](O)[C@H](O)[C@H]2O)n1 | inactive: -12.5% |
| O=C(CCNC(=O)c1ccco1)Nc1ccccc1OC(F)F | inactive: 6.61% |
| COc1cccc2cc(C(C)N(CCCN3CCOCC3)C(=S)Nc3ccc(C)cc3)oc12 (stereo not drawn) | inactive: 7.68% |
| O=C(N/N=C/c1cn(-c2ccccc2)nc1-c1ccc2c(c1)OCCO2)c1ccncc1 | inactive: 6.01% |
| CCCCNC(=O)C1(C)CCN1C(=O)c1ccc(C)c(F)c1 (stereo not drawn) | inactive: 3.48% |
| COc1ccc(C(=O)NNC(=O)C(=O)Nc2ccc(C)cc2)cc1 | inactive: 8.19% |
| CCOC(=O)C1CCN(C(=O)COC(=O)CSc2ccccc2C)CC1 | inactive: 11.4% |
| CS(=O)(=O)CCC(C(=O)OCc1ccc(Br)cc1)N1C(=O)c2ccccc2C1=O (stereo not drawn) | inactive: 7.47% |
| Brc1ccc(-c2csc(N/N=C/c3ccc4c(c3)OCO4)n2)cc1 | inactive: 7.41% |
| COc1ccccc1CCNC(=O)CNC(=O)c1ccc2ccccc2c1 | inactive: 7.44% |
| Cc1ccc(NC(=O)C2=CN3CCS(=O)(=O)N=C3C=C2)cc1 | inactive: 2.21% |
| Cc1ccc(CNc2ccc(N3CCOCC3)cc2)cc1 | inactive: -9.89% |
| Cc1ccc2nc(-c3ccc(NC(=O)CN4C(=O)NC(C)(c5ccc(OC(F)F)cc5)C4=O)cc3)sc2c1 (stereo not drawn) | inactive: 12.5% |
| COc1ccccc1NC(=O)CSc1nnc(NC(=O)C2CC2)s1 | inactive: 4.22% |
| CCOCCCNC(=O)c1ccc(Cn2c(=S)[nH]c3c([nH]c4ccc(OC)cc43)c2=O)cc1 | inactive: -11.9% |
| O=C1NC2(CCC3(CC2)OCCO3)NN1c1ccccc1 | inactive: 12.6% |
| CC1CCc2c(sc(NC(=O)CN3CCN(C(=O)c4ccco4)CC3)c2C#N)C1 (stereo not drawn) | inactive: 37.3% |
| Cc1cc2oc(C(=O)N(Cc3ccc(Cl)cc3)Cc3ccco3)c(C)c2cc1Cl | inactive: 0.865% |
